Experimental data reported in PubChem BioAssay AID686979 (National Center for Advancing Translational Sciences (NCATS), 2013).
The whole screen tested about 420,000 compounds, of which about 50,000 (12%) were called active. The inconclusive results got no clear call from the source; some entries with a clear call stand among them for comparison. Calls come from the whole dose curve; as a rule, active = well fitted inhibition curve with a large enough effect; inconclusive = small, poorly fitted or top-dose-only effect; inactive = flat fitted curve, though single readings scatter. No potency is given beside an inconclusive call; the fits are too rough.

Assay: qHTS for Inhibitors of human tyrosyl-DNA phosphodiesterase 1 (TDP1): qHTS in cells in presence of CPT; note: nearly all actives have a fitted effect of over 55% in size
Details: chicken DT40 Tdp1-/-;hTDP1 cells + 20 nM CPT, ATP luminescence, 48 h; activity change, negative = growth inhibition: at 46.2 µM (top of the series) unless noted
Procedure, shortened: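 Chicken DT40 Tdp1-/- cells complemented with human TDP1, 400 cells/well, exposed to compounds plus 20 nM camptothecin for at least 48 h at 37 C; viability read as ATP content by CellTiter-Glo luminescence.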
% is set by controls: 0 for no effect and ±100 for the full control effect; potency is the fitted concentration of half-maximal effect; tags give direction and shape of the fitted curve.

| SMILES | Potency | activity change, negative = growth inhibition |
| --- | --- | --- |
| CCOc1ccc(CCNC(=O)Cn2nc(CC)n3c(cc4sc(CC)cc43)c2=O)cc1OCC | active: 16.4 µM |  |
| O=C(CC1CC2CCC1C2)N1CCN(S(=O)(=O)c2ccc(F)cc2)CC1 (stereo not drawn) | inactive |  |
| COc1cc(C(O)c2nc(-c3cnn(C)c3)cs2)ccc1F (stereo not drawn) | inconclusive [inhibitor, single point] |  |
| Cn1c(=O)c(C(=O)NNC(=O)c2ccccc2Br)c(O)c2ccccc21 | inconclusive [inhibitor, single point] |  |
| CC1CCCCN1C(=O)/C=C/c1ccccc1[N+](=O)[O-] (stereo not drawn) | inactive |  |
| CCCCCCOc1ccc(/C(C)=N/NC2=NCCN2)cc1[N+](=O)[O-] | inconclusive [inhibitor, single point] |  |
| CN1CCN(Cc2c(O)ccc3c(=O)c(Oc4ccccc4Cl)c(C(F)(F)F)oc23)CC1 | inconclusive [inhibitor, single point] |  |
| CCC/C(O)=C1\C(=O)CC(C)(C)CC1=Nc1ccc(OC)cc1 | inconclusive [inhibitor, partial curve] |  |
| O=c1oc2c(CN3CCOCC3)c(O)ccc2cc1-c1ccc(Cl)cc1 | inconclusive [inhibitor, single point] |  |
| COc1ccc(NC(=O)COc2ccc(/C=N/n3c(C)nnc3C)cc2OC)cc1 | inconclusive [inhibitor, single point] |  |
| CCn1c(=O)c2cc(C(=O)NC3CCCCCC3)sc2c2ccccc21 | active: 16.4 µM |  |
| COc1ccc(C2C(C(=O)N3CCN(c4ccc(OC)cc4)CC3)c3ccccc3C(=O)N2C)cc1 (stereo not drawn) | inconclusive [inhibitor, single point] |  |
| O=C(Nc1cccc(F)c1)N1CC[C@@]2(CCCN(C(=O)c3csnn3)C2)C1 | inactive |  |
| CC(=O)Nc1ccc(NS(=O)(=O)c2ccc3ccccc3c2)cc1 | inconclusive [inhibitor, single point] |  |
| O=C(COc1ccc(Cl)cc1[N+](=O)[O-])N1CCCCCC1 | inconclusive [inhibitor, single point] |  |
| CCN(C[C@H]1N[C@@](CC)(C(=O)OC)[C@H]2C(=O)N(C)C(=O)[C@@H]12)C(=O)C1CCCCC1 | inactive |  |
| N#C/C(=C\c1cccc([N+](=O)[O-])c1)C(=O)NCC1CCCO1 (stereo not drawn) | inactive |  |
| CCN(CC)CCCNC(=O)CCC(=O)Nc1ccc2nc(N3CCC(C)CC3)cc(C)c2c1 | inconclusive [inhibitor, single point] |  |
| COc1ccc(CNC(=O)COc2ccc(S(=O)(=O)N3CCOCC3)cc2)cc1 | inconclusive [inhibitor, partial curve] |  |
| CCOc1cc(/C=C(\C#N)C(=O)Nc2ccc(S(N)(=O)=O)cc2)ccc1OCCN1CCOCC1 | inactive |  |
| CSCCC(NC(=O)c1cccc([N+](=O)[O-])c1)C(=O)O (stereo not drawn) | inactive |  |
| CCC[C@@H](CN1CCC[C@H]1CN1C(N)=NC[C@H]1CC(C)C)N1C[C@@H](Cc2ccccc2)N(CCc2ccc(Cl)c(Cl)c2)C1=N | active: 20.6 µM |  |

| SMILES | Potency | activity change, negative = growth inhibition |
| --- | --- | --- |
| O=C(CCNS(=O)(=O)c1ccc2c(c1)CCN2C(=O)C1CC1)N1CCN(c2ccc(F)cc2)CC1 | active: 3.26 µM |  |
| CCCCOC(=O)Nc1nc(C)c(C(=O)OCC)s1 |  | inconclusive: -31.9% [inhibitor] |
| O=C(Nc1ccc(N2CCN(C(=O)c3cccs3)CC2)cc1)c1ccccc1Cl | active: 14.6 µM |  |
| CCN1C(C(=O)c2ccccc2)=C(OC(=O)C(C)C)c2ccccc2S1(=O)=O | active: 6.51 µM |  |
| COc1cc2c(cc1NC(=O)CN(C)Cc1nc3ccccc3c(=O)[nH]1)oc1ccccc12 | active: 18.4 µM |  |
| CCCOc1cccc(C(=O)Nc2ccc(-c3nc4ccccc4s3)c(Cl)c2)c1 | inconclusive [inhibitor, single point] |  |
| COc1ccc(S(=O)(=O)c2cn(Cc3ccccc3)c3cc(N4CCCC4)c(F)cc3c2=O)cc1 | inconclusive [inhibitor, partial curve] |  |
| COc1ccc(CNC(=O)c2cnn(-c3ncc4c(n3)-c3ccccc3CC4)c2C)cc1OC |  | inactive: 5.26% [at 9.04 µM] |
| CC(C)NC(=O)Nc1ccc2c(c1)C(=O)N([C@H](C)CO)C[C@H](C)[C@@H](CN(C)Cc1ccc(C(F)(F)F)cc1)OCCCC[C@@H](C)O2 | active: 13 µM |  |
| Clc1cccc(CN2C3=NCCCN3c3ccccc32)c1 | inconclusive [inhibitor, single point] |  |
| Cc1ccccc1NC(=O)N1CCCC(c2nc(-c3ccc(C(C)C)cc3)no2)C1 (stereo not drawn) | active: 15.8 µM |  |
| Cc1cccc(-[n+]2c(-c3cccc(Br)c3)[nH]c3nc4ccccc4nc32)c1 | inconclusive [inhibitor, single point] |  |
| CCCCNc1nc2c(c(=O)[nH]c(=O)n2C)n1CCOc1ccccc1 |  | inconclusive: -40.2% [inhibitor] |
| Cc1ccccc1N=C1Nc2ccc(Cl)cc2N[C@]12C[C@H]1CCCC(=O)N3CC[C@@H](C2)[C@@H]13 | inconclusive [inhibitor, single point] |  |
| CCCCNC(=O)Cn1nc([N+](=O)[O-])c([N+](=O)[O-])c1C | inactive |  |
| CCc1cc(CC)c(/C=N/NC(N)=O)c(CC)c1/C=N/NC(N)=O | inconclusive [inhibitor, partial curve] |  |
| COc1ccc(OC)c(NC(=O)C2(C)CCN2C(=O)C2(c3ccccc3)CCCC2)c1 (stereo not drawn) | inconclusive [inhibitor, single point] |  |
| O=c1oc(C2(O)CCCCC2)cc2ccccc12 | inactive |  |
| CC(C)CCNC(=O)C1CCCN(S(=O)(=O)c2ccc3c(c2)CC(C)N3C(=O)C2CC2)C1 (stereo not drawn) | inconclusive [inhibitor, single point] |  |
| Cc1cc(C)cc(OCC(=O)N(Cc2ccco2)c2c(N)n(Cc3ccccc3)c(=O)[nH]c2=O)c1 | inactive |  |
| Cc1cccn2c(CNCC3OCCc4ccccc43)c(C(=O)N3CCCCC3)nc12 (stereo not drawn) |  | inconclusive: -32.9% [inhibitor] |
